Among the test systems are LOX IMVI melanoma; MDA-MB-435; SR leukemia; K-562 leukemia.
Assay in all cases: NCI tumour cell line growth inhibition, 48 h

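96-well plates; 48 h exposure; 5 concentrations. Endpoints by linear interpolation between flanking doses. Not reached: highest tested concentration assigned. GI50: concentration for 50% inhibition of growth.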 A number of entries come with more than one value. This list holds those alone. The source may hold further records. The records of an entry are repeated measurements across runs, samples, wells, individuals or studies. Brackets tell where a record comes from. The letters are not those of the source and start again with each entry.

Take `COc1cc(C)c(-c2ccc(=O)c(OC)cc2C)c(OC)c1OC`: the GI50 is > 100 µM [sample A, 1 test] and 6.68 µM [sample B, 1 test] in the test on LOX IMVI melanoma; > 100 µM [sample A, 1 test] and 3.45 µM [sample B, 1 test] with MDA-MB-435; > 100 µM [sample A, 1 test] and 5.72 µM [sample B, 1 test] in the test on SR leukemia; > 100 µM [sample A, 1 test] and 4.97 µM [sample B, 1 test] with K-562 leukemia.

Values taken from PubChem BioAssay (NCI).
